The list shows a part of the results.

Six molecules from PMC12136788 can be followed below.

T1: UNK ZnF1-3 (human, UniProt Q9C0B0 31-174)
T1 sequence: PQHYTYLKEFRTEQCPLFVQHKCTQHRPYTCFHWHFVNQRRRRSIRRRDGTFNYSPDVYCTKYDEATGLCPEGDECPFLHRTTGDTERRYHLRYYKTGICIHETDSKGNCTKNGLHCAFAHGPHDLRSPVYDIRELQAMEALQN

B1: chr2:187373433:187373434:+_ENSG00000065548_ENST00000337859|hu_mus|FALSE|FALSE (ssRNA)
RNA: GGGAGUUCUACAGUCCGACGAUCUGACCUAGUUUUCAUCCUCAUCAUUCUUCUAAGUCAAGAGUGUUCAAUUCCUCUUCUAGUUCAUCCAGAUCUUCGCCAGUGAACAGGUUUUCAUCAACAGGAACAGCAUCGAUGGAUCCACAACAGAGGAUUGAGCAUCA
B2: chr1:25551555:25551556:-_ENSG00000117614_ENST00000236273|hu_hu|FALSE|FALSE (ssRNA)
RNA: GGGAGUUCUACAGUCCGACGAUCUAUGACCAUCCUGUCAAUUUCCUCUGUGGAAGGCACAUGUGUUCCAUGAAGAAGACUAUUGGAUGUUGGGAAAAACUCUUCUCCAUGUUUUUCUCUCAGUCUCUCAUAUGUUUCCAUGUCCAACAGAGGAUUGAGCAUCA
B3: 26887487_26892506_356_CDS_ENSG00000120159_ENST00000333916|human|control|control (ssRNA)
RNA: GGGAGUUCUACAGUCCGACGAUCAGUUGGCAAAAUAUAUUUAGUUUCCUGCUGCAAGGAGCCCGAGACGCUGGAAGAGUCGGUACUCCUCCGCUUCCGGCGCUCGCUGCGCUCCACGCUGCUCCCGCCCCAACAGCUGCCGCCCAACAGAGGAUUGAGCAUCA
B4: chr6:114270382:114270383:-_ENSG00000196591_ENST00000368632|hu_mus|motif|central (ssRNA)
RNA: GGGAGUUCUACAGUCCGACGAUCCAUCUCCAUCACUUUUGAGAUGAUAGGCUUAAAAAUUUGUCCAUAUGAUUCAUCAUCGGUACCAUCUCUCAUGGGAAAAUUGACAGCAUAGUAUUUUCCCUUUCCAGCACCAAUAUCCCUCAACAGAGGAUUGAGCAUCA
B5: chr1:185276735:185276736:-_ENSG00000116679_ENST00000392007|hu_mus|FALSE|FALSE (ssRNA)
RNA: GGGAGUUCUACAGUCCGACGAUCAAUAUAAGCGUCAACUUUAUUCAACAAACGGGAGUCUCCCAUACAACUUGCAAAAUUUCGGUAAGAGAUGCAGCUAGUAACAUCCAUUCUAGAUAGUAAAUAAUCUCCGCAGACCUGCUUCAACAGAGGAUUGAGCAUCA
B6: 42731334_42731454_4638_CDS_ENSG00000103994_ENST00000263805|human|control|control (ssRNA)
RNA: GGGAGUUCUACAGUCCGACGAUCCCAAAUAUCCUUUUUAGAUGGGCUGUCUGGUUUCUCUUCUCCUGAUUCUGAAGAAUCAAUGGCUACUACUUCUAACUGAGGAUUAGGAAUUUCUAGGACUUCCAGAGACGAGUCACUAUCCAACAGAGGAUUGAGCAUCA

In this assay the target is T1, UNK ZnF1-3. Kind of assay: nsRBNS (natural sequence RNA bind-n-seq); RBNS binding buffer (assumed for nsRBNS): 25 mM Tris pH 7.5, 150 mM KCl, 3 mM MgCl2, 0.01% Triton X-100, 500 ug/ml BSA, 20 U/ml SUPERase-In, 4 C; UNK is unkempt and MSI1 is Musashi-1; names of the RNAs are library labels; protein concentration not given here; high values mean tight binding.
For B1, the binding signal was determined as 1.19 enrichment R.

Molecule B2 displayed a binding signal of 0.576 enrichment R.

For B3, the binding signal came to 0.864 enrichment R.

In turn, B4 registered a binding signal of 0.681 enrichment R.

Turning to B5, the binding signal stood at 1.3 enrichment R.

Regarding B6, the binding signal was determined as 0.565 enrichment R.
